The results in this text go back to patent US11185553B2, “Pharmaceutical composition for preventing or treating ischemic-reperfusion injury comprising bile acids” (priority 2016, dated 2021).

In the assay the test system is human umbilical vein endothelial cells (HUVECs). The experiment in a line: In vitro cell proliferation (cell counting method and CCK-8 staining). It counts as cell-based. To be noted: 1 μM, 24 hours.

On to `C[C@H](CCC(=O)O)[C@H]1CC[C@H]2[C@@H]3[C@H](O)C[C@@H]4C[C@H](O)CC[C@]4(C)[C@H]3C[C@H](O)[C@]12C` [cholic acid], for which the “cell proliferation effect (CCK-8 assay)” value (FIG. 4B) is reported as “significant a cell proliferation effect”. For the same compound, the “cell proliferation effect (cell counting, proliferation assay)” value (vs control group, FIG. 4A) is recorded as “more significant cell proliferation effects than the control group”.
